Source: PMC6683731 (The Journal of Cell Biology, 2019)

Experiments:
GST-Sgo1 fragment 47–353 = GST-Sgo1 fragment 47–353 (human, UniProt Q5FBB7 47-353); assay: pull-down
GST-Sgo1 fragment 13–353 = GST-Sgo1 fragment 13–353 (human, UniProt Q5FBB7 13-353); assay: pull-down
Sequence of GST-Sgo1 fragment 13–353 (Q5FBB7 13-353): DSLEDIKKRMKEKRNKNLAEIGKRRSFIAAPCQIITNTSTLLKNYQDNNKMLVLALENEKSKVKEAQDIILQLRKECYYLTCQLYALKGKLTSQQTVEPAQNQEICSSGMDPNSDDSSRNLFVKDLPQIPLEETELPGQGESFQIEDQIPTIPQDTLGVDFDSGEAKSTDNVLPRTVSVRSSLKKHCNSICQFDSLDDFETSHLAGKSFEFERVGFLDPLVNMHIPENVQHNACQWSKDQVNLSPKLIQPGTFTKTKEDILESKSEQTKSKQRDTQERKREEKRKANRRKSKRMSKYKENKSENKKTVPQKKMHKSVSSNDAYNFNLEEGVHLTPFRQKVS

Sequence of GST-Sgo1 fragment 47–353 (Q5FBB7 47-353): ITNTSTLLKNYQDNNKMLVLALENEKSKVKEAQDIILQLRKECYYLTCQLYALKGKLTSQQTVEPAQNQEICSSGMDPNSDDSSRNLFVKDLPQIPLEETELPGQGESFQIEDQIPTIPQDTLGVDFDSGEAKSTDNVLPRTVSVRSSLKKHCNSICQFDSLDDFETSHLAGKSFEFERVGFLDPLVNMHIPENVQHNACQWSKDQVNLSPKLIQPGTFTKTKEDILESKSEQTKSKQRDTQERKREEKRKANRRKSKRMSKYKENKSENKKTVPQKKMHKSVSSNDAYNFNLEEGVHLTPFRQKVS

binding result (GST-Sgo1 fragment 47–353): binds
binding result (GST-Sgo1 fragment 13–353): binds
B1: His6-SET (full length) (natural protein)
chain: not shown
